From patent publication US20130316901A1 (priority 2011, published 2013)
Like-named read-outs stand apart in the source and are kept apart here.

System: Phytophthora infestans
Format: in vivo
Conditions: tomatoes, preventive spray, evaluated 3 days after inoculation

SMILES	Efficacy in % found (50 ppm a.i.)	Efficacy in % found (100 ppm a.i.)	Efficacy in % found (500 ppm a.i.)
Cn1c(=O)c2sc3c(=O)n(C)c(=O)c3sc2c1=O [(I-1), 2,6-dimethyl-1H,5H-[1,4]dithiino[2,3-c:5,6-c′]dipyrrole-1,3,5,7(2H,6H)-tetrone]	8%	30%	–
CCOC(=O)C1CC(=O)C(=C(O)C2CC2)C(=O)C1 (stereo not drawn) [C-12.27, trinexapac-ethyl]	–	–	60%
